Data: PMC12425082
These are yes or no findings as the source states them, for the method shown. In cells and extracts the contact can be indirect. Some entries that bind do so weakly or less than the wild type. Sequences can lack the tags named with a protein.

The chains behind the UniProt entries cited, without tags or fusion partners.
UniProt Q15836: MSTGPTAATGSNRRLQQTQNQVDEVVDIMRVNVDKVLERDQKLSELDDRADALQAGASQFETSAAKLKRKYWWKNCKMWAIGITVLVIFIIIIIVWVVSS
UniProt P63027: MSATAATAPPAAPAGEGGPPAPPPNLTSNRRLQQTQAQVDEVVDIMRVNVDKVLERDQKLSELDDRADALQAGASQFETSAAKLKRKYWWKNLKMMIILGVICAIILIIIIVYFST
UniProt P56962: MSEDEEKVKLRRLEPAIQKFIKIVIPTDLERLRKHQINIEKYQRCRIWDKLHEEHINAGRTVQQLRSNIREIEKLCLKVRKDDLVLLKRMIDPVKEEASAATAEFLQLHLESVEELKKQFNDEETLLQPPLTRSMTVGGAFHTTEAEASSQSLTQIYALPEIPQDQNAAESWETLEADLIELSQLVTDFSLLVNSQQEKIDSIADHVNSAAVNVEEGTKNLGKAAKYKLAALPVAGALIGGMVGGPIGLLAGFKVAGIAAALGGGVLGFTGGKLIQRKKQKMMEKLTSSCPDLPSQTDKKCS
UniProt Q9Y4G2: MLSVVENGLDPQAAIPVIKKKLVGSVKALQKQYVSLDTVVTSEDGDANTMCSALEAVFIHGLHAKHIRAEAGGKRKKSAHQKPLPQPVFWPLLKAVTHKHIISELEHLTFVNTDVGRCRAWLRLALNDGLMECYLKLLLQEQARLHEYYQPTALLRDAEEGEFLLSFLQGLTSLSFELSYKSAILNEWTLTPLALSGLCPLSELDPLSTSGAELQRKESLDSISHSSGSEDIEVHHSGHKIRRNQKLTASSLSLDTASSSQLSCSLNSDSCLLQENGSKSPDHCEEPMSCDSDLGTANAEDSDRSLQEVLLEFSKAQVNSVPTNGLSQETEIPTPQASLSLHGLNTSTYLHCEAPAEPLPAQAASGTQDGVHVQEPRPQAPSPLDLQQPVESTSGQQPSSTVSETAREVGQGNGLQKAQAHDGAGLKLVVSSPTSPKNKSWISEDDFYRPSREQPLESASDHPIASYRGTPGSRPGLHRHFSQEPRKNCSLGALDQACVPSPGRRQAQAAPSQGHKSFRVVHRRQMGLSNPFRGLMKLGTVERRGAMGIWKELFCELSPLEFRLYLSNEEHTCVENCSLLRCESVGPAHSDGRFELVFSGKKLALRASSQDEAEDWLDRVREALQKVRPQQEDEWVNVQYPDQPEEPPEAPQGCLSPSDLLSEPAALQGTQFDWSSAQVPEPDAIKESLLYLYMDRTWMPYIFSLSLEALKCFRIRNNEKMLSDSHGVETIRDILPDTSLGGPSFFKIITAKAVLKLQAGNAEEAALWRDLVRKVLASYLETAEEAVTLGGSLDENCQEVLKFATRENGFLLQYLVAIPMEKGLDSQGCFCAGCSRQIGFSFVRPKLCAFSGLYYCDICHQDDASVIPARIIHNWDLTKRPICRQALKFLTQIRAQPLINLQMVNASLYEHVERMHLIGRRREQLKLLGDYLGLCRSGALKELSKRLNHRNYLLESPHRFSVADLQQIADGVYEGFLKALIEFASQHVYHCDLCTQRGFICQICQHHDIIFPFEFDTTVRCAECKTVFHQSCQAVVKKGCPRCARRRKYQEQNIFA

molecular target: T1, GFP-tagged Munc13-4 (UniProt Q70J99); experiment: co-IP; lysates of BON cells expressing GFP or GFP-Munc13-4 precipitated with GFP nanobodies; western blotting of the pull-downs with antibodies to the partners
T1 sequence: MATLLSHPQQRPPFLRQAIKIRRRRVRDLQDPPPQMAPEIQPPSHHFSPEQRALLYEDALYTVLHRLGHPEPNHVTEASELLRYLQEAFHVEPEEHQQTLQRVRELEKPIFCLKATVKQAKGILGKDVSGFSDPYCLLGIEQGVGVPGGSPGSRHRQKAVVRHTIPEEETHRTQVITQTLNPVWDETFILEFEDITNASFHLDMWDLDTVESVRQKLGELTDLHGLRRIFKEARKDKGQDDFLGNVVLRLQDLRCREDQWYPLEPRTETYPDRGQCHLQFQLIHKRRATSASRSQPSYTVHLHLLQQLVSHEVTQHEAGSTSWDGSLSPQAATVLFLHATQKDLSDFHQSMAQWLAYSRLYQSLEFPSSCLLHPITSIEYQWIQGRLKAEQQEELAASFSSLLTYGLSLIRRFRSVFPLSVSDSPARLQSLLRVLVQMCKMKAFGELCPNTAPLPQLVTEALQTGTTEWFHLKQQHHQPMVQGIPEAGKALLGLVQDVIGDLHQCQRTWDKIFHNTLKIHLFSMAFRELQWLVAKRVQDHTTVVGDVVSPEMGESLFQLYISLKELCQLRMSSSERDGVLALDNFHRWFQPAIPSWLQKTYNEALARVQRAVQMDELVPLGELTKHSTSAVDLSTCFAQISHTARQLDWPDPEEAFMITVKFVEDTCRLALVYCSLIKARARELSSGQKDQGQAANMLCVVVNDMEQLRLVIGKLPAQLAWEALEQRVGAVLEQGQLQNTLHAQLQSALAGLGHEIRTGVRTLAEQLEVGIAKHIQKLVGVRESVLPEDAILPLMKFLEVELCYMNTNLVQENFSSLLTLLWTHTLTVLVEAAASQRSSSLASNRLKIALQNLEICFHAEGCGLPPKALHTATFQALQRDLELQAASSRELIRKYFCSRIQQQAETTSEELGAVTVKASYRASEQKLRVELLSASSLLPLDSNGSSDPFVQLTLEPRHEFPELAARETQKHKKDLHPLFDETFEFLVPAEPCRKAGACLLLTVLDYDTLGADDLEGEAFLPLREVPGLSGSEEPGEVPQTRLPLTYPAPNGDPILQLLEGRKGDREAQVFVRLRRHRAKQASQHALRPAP

| Substance | binding |
| --- | --- |
| VAMP3 (from UniProt Q15836 1-100) | no binding |
| VAMP2 (vesicle-associated membrane protein 2) (from UniProt P63027 1-116) | binds |
| STX17 (from UniProt P56962 1-302) | no binding |
| PLEKHM1 (from UniProt Q9Y4G2 1-1056) | binds |
